#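 Compound exposure: 48 hours, 5 concentrations, 96-well plates. Here, GI50 denotes the concentration required for 50% inhibition of growth. At the TGI there is no net growth.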 Square brackets hold non-standard residues; d marks the D form. Peptide text beside a SMILES is read from it. * marks the point of attachment. ξ: configuration not given here. Fmoc = O=C(OCC1c2ccccc2-c2ccccc21)*; dIva = CC[C@@](C)(N)C(=O)O; Boc = CC(C)(C)OC(=O)*; Aib = CC(C)(N)C(=O)O; ξP = O=C(O)C1CCCN1; βAla = NCCC(=O)O; X5 = OCN*
# Tested on: NCI-H322M lung
# Assay: inhibition of tumour cell growth, NCI panel, 48 h
SMILES,TGI,GI50
CSc1nc(Cl)c2c(n1)Sc1nc3ccccc3n1N=C2,> 100 µM,–
COc1ccc2c(c1)C(=O)c1c-2n(CCCNCCO)c(=O)c2cc([N+](=O)[O-])ccc12,1.7 µM,0.021 µM
CCCC(CCC)C(=O)O,> 20000 µM,> 100 µM
O=C(NC(Cc1ccccc1)P(=O)(O)c1ccccc1)OCc1ccccc1 (centres undefined),> 100 µM,–
O=S1Cc2ccccc2CSS1 (centres undefined),> 100 µM,–
CC(C)C(=O)CP(=O)(O)O,> 100 µM,–
COC(=O)[C@]1(C)CC[C@]2(C)CC[C@]3(C)C(=CC(=O)[C@@H]4[C@@]5(C)CCC(=O)NC(C)(C)[C@@H]5CC[C@]43C)[C@@H]2C1,> 100 µM,> 100 µM
COC1=CC(=O)C2C(C1=O)[C@@H]1c3ccccc3OC[C@H]21 (some centres undefined),> 100 µM,–
O=C1Cc2c([nH]c3cc(Br)ccc23)-c2ccccc2N1,> 100 µM,–
CCCCCCC(=O)CC(=O)C(=O)Nc1ccccc1C,> 100 µM,–
N#Cc1c(Nc2ccccc2)[n+]([O-])c2ccc(Cl)cc2[n+]1[O-],> 100 µM,–
COc1cccc(-c2cc(=O)c3cc(N4CCCC4)ccc3[nH]2)c1,> 10 µM,–
CN(C)c1ccc(/C=c2\sc3nnc(Cc4ccccc4)n3c2=O)cc1,> 100 µM,> 100 µM
CC(C)(C)OC(=O)NCCCCC(NC(=O)C(Cc1c[nH]c2ccccc12)NC(=O)OCC1c2ccccc2-c2ccccc21)C(=O)O (centres undefined) (Fmoc-Trp-Lys(Boc)-OH; configuration not given here),> 100 µM,–
C/C=C1/C(=O)O[C@]23C=C[C@@H]4C(C(=O)OC)=CO[C@H](O[C@@H]12)[C@@H]43,8.42 µM,–
O=c1cc(-c2cccc(Br)c2)[nH]c2cc3c(cc12)OCO3,43.6 µM,–
CC(=O)N1CCN(C=S)CC1,> 100 µM,–
COn1cc(C(=O)N=C(SC)SC)c2ccccc21,43.6 µM,16.3 µM
CNCC1CCn2c(c(C3=C(c4cn(C)c5ccccc45)C(=O)NC3=O)c3ccccc32)C1 (centres undefined),12.1 µM,4.14 µM
C/C(CC(O)(C(F)(F)F)C(F)(F)F)=N/Nc1ccc([N+](=O)[O-])cc1[N+](=O)[O-],> 10 µM,–
CCOC(=O)C(C(=O)OCC)C(NC(=O)Nc1cc(C(F)(F)F)ccc1OC)(C(F)(F)F)C(F)(F)F,82.7 µM,–
O=Cc1ccc2[nH]c(=O)oc2c1,> 100 µM,–

SMILES,TGI,GI50
C/C(=N\NS(=O)(=O)c1ccccc1)c1ccc[n+]([O-])n1,> 100 µM,–
CC[C@@](C)(NC(=O)[C@H](C)NC(=O)CCNC(=O)C(C)(C)NC(=O)[C@H](C)NC(=O)[C@@H]1CCCN1C(=O)[C@@](C)(CC)NC(=O)[C@H](Cc1ccccc1)NC(=O)C1CCCN1C(=O)C(C)(C)NC(=O)C1CCCN1C(=O)C(C)(C)NC(C)=O)C(=O)NCCC(=O)N[C@@H](CC(C)C)C(=O)NC(C)(C)C(=O)NCCC(=O)N[C@@H](CC(C)C)C(=O)NC(C)(C)C(=O)NC(C)(C)C(=O)N[C@@H](CC(C)C)C(=O)NCCC(=O)NCO (some centres undefined) (Ac-[Aib][ξP][Aib][ξP]F[dIva]PA[Aib][βAla]A[dIva][βAla]L[Aib][βAla]L[Aib][Aib]L[βAla]-X5),0.512 µM,0.262 µM
CC(=O)O[C@@H]1CN(S(=O)(=O)c2ccc(C)cc2)C[C@@H]1C1CCCCC1,> 100 µM,–
Cc1ccc(S(=O)(=O)N/N=C2\CC3C4CCC3C2C4)cc1 (centres undefined),> 100 µM,–
COc1cc(N(CCC#N)CCC#N)ccc1/C(N=Nc1cccc(C)c1)=N\NC(=O)c1ccc(C)cc1,> 100 µM,–
C1COCCOP2(N3CC3)=NP(N3CC3)(=NP(N3CC3)(N3CC3)=N2)OCCOCCO1 (centres undefined),> 100 µM,–
O=C1OC(=O)C2C1C1C(c3ccccc3)=C(c3ccccc3)C2(O)C2C(=O)OC(=O)C12 (centres undefined),> 100 µM,–
OCC1(CNc2cc(Cl)ncn2)CCC1,> 100 µM,–
COC(=O)C(C(=O)C(=O)Nc1ccc(N)cc1[N+](=O)[O-])c1nc2ccc(Cl)cc2[nH]c1=O (centres undefined),> 100 µM,–
CCCCCCCCC(=O)NCCN(CCN)C(=O)CCCCCCCC,34.2 µM,–
COc1ccc(-c2cc(=O)c3cccnc3[nH]2)cc1,> 100 µM,–
CCOC(=O)c1c[nH]c2cc3c(cc2c1=O)CCS3,> 100 µM,–
COc1cc(C2S/C(=C/c3ccccc3)C(=O)N2c2ccccn2)cc(OC)c1OC (centres undefined),> 100 µM,–
N#CC1([N+](=O)[O-])C=C1c1ccccc1 (centres undefined),> 100 µM,–
C=C1C(OCCO)OC2O[C@]3(C)CCC4[C@H](C)CCC1C24OO3 (some centres undefined),> 100 µM,> 100 µM
Cc1cccc2c(=O)c3c(O)cc4c(c3n(C)c12)C=CC(C)(C)O4,> 100 µM,–
NC(N)=N/N=C/c1ccc(Br)cc1,26.4 µM,7.57 µM
NC(N)=NC(N)=NCc1ccco1,> 1250 µM,832 µM
COC(=O)C(=O)C(C(=O)C(=O)Nc1nc(=S)[nH][nH]1)c1nc2ccc([N+](=O)[O-])cc2[nH]c1=O (centres undefined),> 100 µM,–
CCOc1ccccc1NC(=O)C(=O)c1c(O)c2ccc(O)cc2oc1=O,> 100 µM,–
CC(=O)Nc1cc(CN2CCCCC2)c(O)c2ncccc12,> 100 µM,–
CN(C)c1ccc(/C=N/NC(=O)c2cnc3ccccc3c2)cc1,> 100 µM,–

SMILES,TGI,GI50
O=C(O)CCCN=C(C(=NCCCC(=O)O)c1ccccc1)c1ccccc1,> 100 µM,–
N#CCCN(CCC#N)c1ccc(/C=C2\N=C(c3ccccc3)N(c3ccccc3)C2=O)cc1,> 100 µM,–
Cn1c(=O)c2[nH]cnc2n(C)c1=O.[CH2-]C(Cc1cccc2cc(C(=O)O)c(=O)oc12)OC.[Hg+2].[OH-] (centres undefined),> 55.1 µM,> 40.9 µM
CN1CCN(Cc2ccc(NC(=O)c3[nH]ncc3Nc3cc(OC4CCCC4)ncn3)cc2)CC1,15.4 µM,3.64 µM
COc1ccc2oc3c(ccc[n+]3C)c(=O)c2c1,> 100 µM,–
CC(=O)N1c2ccc(-c3ccc(C(=O)O)cc3)cc2[C@H](Nc2ccc(Cl)cc2)C[C@@H]1C,26.1 µM,0.358 µM
Cc1ccc(C)c(C(=N)c2ccccc2Cc2ccccc2)c1,> 100 µM,–
CC1(C)N=C(N)N=C(N)N1c1ccc(CCC(=O)Nc2cccc(S(=O)(=O)F)c2)cc1,26.5 µM,2.78 µM
COc1ccc([Se]c2ccc(OC)cc2)cc1,> 100 µM,–
CN/N=C(/CC(=O)c1sc(NNC(C)=O)nc1C)C(=O)Nc1ccc(OC)cc1OC,> 100 µM,–
Cc1c(C(=O)Nc2ccc(Cl)cc2)nc(N)nc1-c1cccc(Cl)c1,> 100 µM,–
O=C1CC2OCC=C3CN4CCC56c7ccccc7N1C5C2C3CC46 (centres undefined) (tested in a mixture with another compound),> 50 µg/mL,> 50 µg/mL
COC(=O)C(Cc1ccccc1)N=Cc1c(O)c(O)c(C(C)C)c2cc(C)c(-c3c(C)cc4c(C(C)C)c(O)c(O)c(C=NC(Cc5ccccc5)C(=O)OC)c4c3O)c(O)c12 (centres undefined),75.6 µM,–
COC(=O)C1=C(O)C(C(=O)OC)[C@@]2(O)[C@@H](C(=O)OC)C(c3ccccc3Cl)C[C@@H]1[C@@H]2C(=O)OC (some centres undefined),27.5 µM,13.3 µM
NNC(=O)CSc1nnc(CCCCCCCCc2nnc(SCC(=O)NN)o2)o1,> 100 µM,–
CC(=O)NC1=CC(=O)C=C(Cl)C1=O,> 100 µM,–
CCOC(=O)C1C(=O)c2cccc(OC)c2C2COC(=O)N12 (centres undefined),> 100 µM,–
CC(=O)OC[C@]12CCC3[C@@]4(C)CCCC(C)(C)C4CC[C@@]3(C)C1CC(C1=CC(=O)OC1O)O2 (some centres undefined),4.9 µM,–
CN1CCN(Cc2ccc(NC(=O)c3cncc(C#Cc4ncc5ccccn45)c3)cc2C(F)(F)F)CC1,6.42 µM,2.41 µM
O=C(Nc1ccc(N2CCNCC2)cn1)c1[nH]ncc1Nc1ncnc2sc3c(c12)CCC3,4.14 µM,1.77 µM
CSc1nc(-c2cccc(NC(=O)CCl)c2)c(C#N)c(=O)n1C,12.9 µM,3.39 µM

# Reference: PubChem BioAssay (NCI)
